Results filed as inconclusive are left out. Calls follow the shape of the full dose curve; tested in HEK293 reporter line. Some structures have more than one record in an assay (separate samples or runs), and their calls can disagree. A number of entries come with more than one value. This list holds those alone. An entry can have further records. Values given together are repeats (runs, samples, wells, individuals or studies). A tag in brackets gives the origin of a value. Letters hold for one entry only.
Assay: qHTS for Inhibitors of the Functional Ribonucleoprotein Complex (vRNP) of Lymphocytic Choriomeningitis Arenaviruses (LCMV): Viability assay - alamar blue signal for LCMV Primary Screen (AID 1347085); also: nearly all actives have a fitted effect of over 80% in size
Details: alamar blue viability counter-screen, LCMV vRNP screen cells; series mostly up to 57.5 µM
For `O=C(NCC1CCCCN1)c1cc(OCC(F)(F)F)ccc1OCC(F)(F)F` (stereo unspecified), the Potency was “active: 13.7 µM [sample A] and inactive [sample B]”. In the case of `Nc1cc(C(Cl)=C(Cl)Cl)c(S(N)(=O)=O)cc1S(N)(=O)=O`, the Potency is reported as “active: 7.69 µM [sample A] and inactive [sample B]”. For `Nc1nc2ccc(OC(F)(F)F)cc2s1`, the Potency was “inactive [sample A] and active: 4.32 µM [sample B] and inactive [sample C]”. In the case of `CC(C)Cc1ccc(C(C)C(=O)O)cc1` (stereo unspecified), the Potency is reported as “inactive [sample A] and inactive [sample B] and active: 10.6 µM [sample C]”. In the case of `CC(C(=O)O)c1ccc2c(c1)CC(=O)c1ccccc1S2` (stereo unspecified), the Potency is reported as “active: 4.32 µM [sample A] and inactive [sample B]”. For `Nc1ncn([C@H]2C[C@H](O)[C@@H](CO)O2)c(=O)n1`, the Potency was “inactive [sample A] and active: 21.7 µM [sample B]”.

Source: PubChem BioAssay (NCATS)
Potency is read from the fitted curve at half-maximal effect.
